Some of these results come from one statement about several compounds together.
Experiments:
Cooperia curticei = Cooperia curticei assay (COOPCU), larval mortality; type: cell-based; settings: application rate 20 ppm, after 5 days
Description: Cooperia Curticei—Assay (COOPCU)
(§1) Solvent: dimethyl sulfoxide
(§2) To produce a suitable preparation, 10 mg of active compound are dissolved in 0.5 ml solvent, and the concentrate is diluted with “Ringer's solution” to the desired concentration.
Approximately 40 nematode larvae (Cooperia curticei) are transferred into a test tube containing the compound solution.
After 5 days percentage of larval mortality is recorded. 100% efficacy means all larvae are killed; 0% efficacy means no larvae are killed.

Haemonchus contortus = Haemonchus contortus assay (HAEMCO), larval mortality; type: cell-based; settings: application rate 20 ppm, after 5 days
Description: Haemonchus Contortus—Assay (HAEMCO)
as §1, §2
Approximately 40 larvae of the red stomach worm (Haemonchus contortus) are transferred into a test tube containing compound solution.
After 5 days percentage of larval mortality are recorded. 100% efficacy means all larvae are killed, 0% efficacy means no larvae are killed.

SMILES | activity (percentage of larval mortality) (Cooperia curticei) [%] | activity (percentage of larval mortality) (Haemonchus contortus) [%]
O=C(NCC(F)(F)c1ccc(-c2ccc(OC(F)(F)F)cc2)cc1Cl)c1ccccc1C(F)(F)F [Example 39] | 100 | 100
O=C(NCC(F)(F)c1ccc(-c2ccc(C(F)F)cc2)cc1Cl)c1ccccc1C(F)(F)F [Example 40] | 100 | 100
O=C(NCC(F)(F)c1ccc(-c2ccc(C(F)(F)F)cc2)cc1Cl)c1ccccc1C(F)(F)F [Example 41] | 100 | 90
O=C(NCC(F)(F)c1ccc(-c2cccc(OC(F)(F)F)c2)cc1Cl)c1ccccc1C(F)(F)F [Example 42] | 100 | 100
O=C(NCC(F)(F)c1ccc(-c2ccc(S(=O)(=O)C(F)(F)F)cc2)cc1Cl)c1ccccc1C(F)(F)F [Example 45] | 100 | 90
N#Cc1ccc(-c2cc(F)c(C(F)(F)CNC(=O)c3ccccc3C(F)(F)F)c(F)c2)cc1 [Example 46] | 100 | 90
O=C(NCC(F)(F)c1c(F)cc(-c2ccc(SC(F)(F)F)cc2)cc1F)c1ccccc1C(F)(F)F [Example 47] | 100 | 100
O=C(NCC(F)(F)c1c(F)cc(-c2ccc(OC(F)(F)F)cc2)cc1F)c1ccccc1C(F)(F)F [Example 48] | 100 | 90
Cc1cc(-c2ccc(SC(F)(F)F)cc2)ccc1C(F)(F)CNC(=O)c1ccccc1C(F)(F)F [Example 50] | 100 | 100
O=C(NCC(F)(F)c1ccc(-c2ccc(F)cc2)cc1C(F)(F)F)c1nccnc1C(F)(F)F [Example 52] | 100 | 100
O=C(NCC(F)(F)c1ccc(-c2ccc(Cl)cc2)cc1C(F)(F)F)c1nccnc1C(F)(F)F [Example 53] | 100 | 100
O=C(NCC(F)(F)c1ccc(-c2ccc(F)cc2)cc1F)c1nccnc1C(F)(F)F [Example 54] | 100 | 100
O=C(NCC(F)(F)c1ccc(-c2ccc(Cl)cc2)cc1F)c1nccnc1C(F)(F)F [Example 55] | 100 | 100
O=C(NCC(F)(F)c1ccc(-c2ccc([S+]([O-])C(F)(F)F)cc2)cc1Cl)c1ccccc1C(F)(F)F (centres unmarked) [Example 56] | 100 | 100
O=C(NCC(F)(F)c1ccc(-c2ccc(F)cc2)cc1Cl)c1ccccc1I [Example 57] | 100 | 100
O=C(NCC(F)(F)c1ccc(-c2ccc(F)cc2)cc1Cl)c1ccccc1Br [Example 58] | 100 | 100
O=C(NCC(F)(F)c1ccc(-c2ccc(F)cc2)cc1Cl)c1ccccc1Cl [Example 59] | 100 | 100
O=C(NCC(F)(F)c1ccc(-c2ccc(F)cc2)cc1Cl)c1c(F)cccc1F [Example 60] | 100 | 100
O=C(NCC(F)(F)c1ccc(-c2ccc(F)cc2)cc1Cl)c1nccnc1C(F)(F)F [Example 61] | 100 | 100
O=C(NCC(F)(F)c1ccc(-c2ccc(F)cc2)cc1Cl)c1ncccc1C(F)(F)F [Example 62] | 100 | 100
O=C(NCC(F)(F)c1ccc(-c2ccc(F)cc2)cc1Cl)c1cccnc1Cl [Example 63] | 100 | 100
O=C(NCC(F)(F)c1ccc(-c2ccc(F)cc2)cc1Cl)c1cccnc1I [Example 64] | 100 | 100
O=C(NCC(F)(F)c1ccc(-c2cccc(OC(F)F)c2)cc1Cl)c1ccccc1C(F)(F)F [Example 65] | 100 | 100
O=C(NCC(F)(F)c1ccc(-c2cc(F)c(OC(F)F)c(F)c2)cc1Cl)c1ccccc1C(F)(F)F [Example 66] | 100 | 100
O=C(NCC(F)(F)c1ccc(-c2cccc(C(F)(F)F)c2)cc1Cl)c1ccccc1C(F)(F)F [Example 67] | 100 | 100
O=C(NCC(F)(F)c1ccc(-c2ccc(OC(F)F)cc2)cc1Cl)c1ccccc1C(F)(F)F [Example 68] | 100 | 100

SMILES | activity (percentage of larval mortality) (Cooperia curticei) [%] | activity (percentage of larval mortality) (Haemonchus contortus) [%]
O=C(NCC(F)(F)c1ccc(-c2ccc(Cl)c(Cl)c2)cc1Cl)c1ccccc1C(F)(F)F [Example 70] | 100 | 100
O=C(NCC(F)(F)c1ccc(-c2ccc3c(c2)OC(F)(F)O3)cc1Cl)c1ccccc1C(F)(F)F [Example 71] | 100 | 100
Cc1cc(-c2ccc(OC(F)(F)F)cc2)ccc1C(F)(F)CNC(=O)c1ccccc1C(F)(F)F [Example 76] | 100 | 100
Cc1cc(-c2ccc(C(F)F)cc2)ccc1C(F)(F)CNC(=O)c1ccccc1C(F)(F)F [Example 80] | 100 | 100
O=C(NCC(F)(F)c1c(F)cc(-c2ccc(C(F)F)cc2)cc1F)c1ccccc1C(F)(F)F [Example 81] | 100 | 90
O=C(NCC(F)(F)c1c(F)cc(-c2cccc(C(F)F)c2)cc1F)c1ccccc1C(F)(F)F [Example 82] | 100 | 90
CN1CCN(c2ccc(-c3ccc(C(F)(F)CNC(=O)c4ccccc4C(F)(F)F)c(Cl)c3)cc2)CC1 [Example 84] | 100 | 
O=C(NCC(F)(F)c1c(F)cc(-c2ccc(C(F)(F)F)cc2)cc1F)c1ccccc1C(F)(F)F [Example 86] | 100 | 90
Cc1cc(-c2ccc(C(F)(F)F)cc2)ccc1C(F)(F)CNC(=O)c1ccccc1C(F)(F)F [Example 88] | 100 | 100
N#Cc1cc(-c2ccc(C(F)F)cc2)ccc1C(F)(F)CNC(=O)c1ccccc1C(F)(F)F [Example 89] | 100 | 
Cc1cc(-c2cccc(C(F)F)c2)ccc1C(F)(F)CNC(=O)c1ccccc1C(F)(F)F [Example 90] | 100 | 100
COc1cc(-c2cccc(C(F)F)c2)ccc1C(F)(F)CNC(=O)c1ccccc1C(F)(F)F [Example 92] | 100 | 100
N#Cc1ccc(-c2ccc(C(F)(F)CNC(=O)c3ccccc3C(F)(F)F)c(Cl)c2)c(F)c1 [Example 93] | 100 | 100
O=C(NCC(F)(F)c1ccc(-c2ccc(F)c(Cl)c2)cc1Cl)c1ccccc1C(F)(F)F [Example 94] | 100 | 100
N#Cc1cc(-c2ccc(C(F)(F)CNC(=O)c3ccccc3C(F)(F)F)c(Cl)c2)ccc1Cl [Example 95] | 100 | 100
N#Cc1cc(-c2ccc(C(F)(F)CNC(=O)c3ccccc3C(F)(F)F)c(Cl)c2)ccc1F [Example 96] | 100 | 100
N#Cc1ccc(-c2ccc(C(F)(F)CNC(=O)c3ccccc3C(F)(F)F)c(Cl)c2)cc1C(F)(F)F [Example 97] | 100 | 
O=C(NCC(F)(F)c1ccc(-c2cc(F)cc(F)c2)cc1C(F)(F)F)c1ccccc1C(F)(F)F [Example 98] | 100 | 100
N#Cc1ccc(-c2ccc(C(F)(F)CNC(=O)c3ccccc3C(F)(F)F)c(C(F)(F)F)c2)cc1 [Example 99] | 100 | 100
O=C(NCC(F)(F)c1ccc(-c2cc(F)c(F)c(F)c2)cc1C(F)(F)F)c1ccccc1C(F)(F)F [Example 100] | 100 | 100
O=C(NCC(F)(F)c1ccc(-c2cc(F)cc(F)c2)cc1F)c1ccccc1C(F)(F)F [Example 101] | 100 | 100
N#Cc1ccc(-c2ccc(C(F)(F)CNC(=O)c3ccccc3C(F)(F)F)c(F)c2)cc1 [Example 102] | 100 | 100
O=C(NCC(F)(F)c1ccc(-c2cc(F)c(F)c(F)c2)cc1F)c1ccccc1C(F)(F)F [Example 103] | 100 | 100
N#Cc1ccc(-c2ccc(C(F)(F)CNC(=O)c3ccccc3C(F)(F)F)c(Cl)c2)cc1Cl [Example 105] | 100 | 100
O=C(NCC(F)(F)c1ccc(-c2ccc(N3CCOCC3)c(F)c2)cc1Cl)c1ccccc1C(F)(F)F [Example 113] | 100 | 

Reference: patent publication US20170320848A1, “COMPOUNDS FOR USE IN ANTHELMINTHIC TREATMENT” (Bayer Animal Health GMBH, priority 2014, published 2017)
